PubChem BioAssay (Tox21)
Several values for one entry are separate records, joined by “and”; a condition that tells them apart may be missing. Equal entries are not always repeated. The shares of active, inactive and inconclusive entries below differ from those in the screen. For part of these data: A potency beside an inconclusive call is a rough fit, not a confirmed value. Activity calls are given as the source filed them. Unless noted, calls follow the shape of the dose curve; as a rule, active = well fitted curve in the direction sought with a large enough effect in the repeat runs; inconclusive = weak or mixed curves; inactive = no such curve, though single readings can be large; an effect the other way counts as inactive or inconclusive.

Legend:
[1] = qHTS assay for small molecule agonists of the p53 signaling pathway (AID 651631; calls by dose curve; also: nearly all actives have a fitted effect of over 15% in size; also: potency is read from the fitted curve at half-maximal effect); settings: HCT-116 p53RE-bla reporter, beta-lactamase FRET ratio, 16 h; activation: at 73.3 µM (top of the series) unless noted
Method in brief: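 p53RE-bla HCT-116 cells; compounds 16 h, 37 °C; LiveBLAzer B/G FRET substrate 2 h RT; fluorescence intensity read-out, qHTS format.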

[2] = target: Peroxisome proliferator-activated receptor gamma (Homo sapiens) (UniProt P37231); test: qHTS assay to identify small molecule antagonists of the peroxisome proliferator-activated receptor gamma (PPARg) signaling pathway (AID 743191; calls by dose curve; also: % is scaled to controls: 0 for no effect and ±100 for the full control effect; nearly all actives have a fitted effect of over 30% in size); settings: HEK293H PPARg-UAS-bla, beta-lactamase ratio, antagonist, 17 h
Sequence of UniProt P37231 (P37231 whole entry, looked up): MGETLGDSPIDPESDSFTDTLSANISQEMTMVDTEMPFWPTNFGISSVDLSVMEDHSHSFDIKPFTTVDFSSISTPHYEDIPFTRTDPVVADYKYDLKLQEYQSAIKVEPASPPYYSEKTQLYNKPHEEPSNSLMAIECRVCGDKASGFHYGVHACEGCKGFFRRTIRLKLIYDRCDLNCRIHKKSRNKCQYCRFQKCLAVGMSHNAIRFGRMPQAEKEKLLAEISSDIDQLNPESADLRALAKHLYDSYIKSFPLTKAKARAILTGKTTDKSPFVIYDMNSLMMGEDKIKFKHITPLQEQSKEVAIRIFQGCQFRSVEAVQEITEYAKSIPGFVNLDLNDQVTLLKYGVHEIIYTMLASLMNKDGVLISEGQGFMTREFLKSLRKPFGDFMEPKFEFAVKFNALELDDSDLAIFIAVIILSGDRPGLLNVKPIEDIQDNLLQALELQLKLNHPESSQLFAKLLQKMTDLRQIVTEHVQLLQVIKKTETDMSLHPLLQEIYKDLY
Method in brief: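 GeneBLAzer PPARg UAS-bla HEK293H cells carrying a UAS-driven beta-lactamase reporter were plated at 3000 cells/well, preincubated 5 h at 37C, then given compound for 17 h at 37C; LiveBLAzer B/G FRET substrate was read after 1 h at room temperature.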

[3] = qHTS assay to identify small molecule antagonists of the peroxisome proliferator-activated receptor delta (PPARd) signaling pathway - cell viability counter screen (AID 743213); settings: PPARd-bla HEK293H viability, CellTiter-Glo luminescence, 17 h; viability change, negative = cytotoxic: at 62 µM (top of the series) unless noted; also: % is scaled to controls: 0 for no effect and ±100 for the full control effect; nearly all actives have a fitted effect of over 50% in size
Method in brief: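 Agonist-stimulated (L165041, 300 nM final) HEK293H PPARd UAS-bla cells are exposed to compounds for 17 h at 37 C, and ATP-based luminescence (CellTiter-Glo) from the same wells reports cytotoxicity.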

[4] = qHTS assay to identify small molecule agonists of the farnesoid-X-receptor (FXR) signaling pathway - cell viability counter screen (AID 743218); settings: FXR-bla HEK293T viability, CellTiter-Glo luminescence, 16 h; viability change, negative = cytotoxic: at 62.6 µM (top of the series) unless noted; also: nearly all actives have a fitted effect of over 45% in size; also: potency is read from the fitted curve at half-maximal effect
Method in brief: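 Viability of FXR-bla HEK 293T cells is measured by ATP-based CellTiter-Glo luminescence following 16 h compound treatment at 37 C and a prior 2 h room-temperature beta-lactamase substrate step.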

[5] = target: Vitamin D3 receptor (Homo sapiens) (UniProt P11473); test: qHTS assay to identify small molecule antagonists of the vitamin D receptor (VDR) signaling pathway (AID 743223; active = well fitted inhibition curve with a large enough effect in the signal ratio in the repeat runs, not every such curve was filed as active; inconclusive = weak or mixed curves, or effect the other way; inactive = no such curve, though single readings can be large or run the other way; the % refers to the signal ratio; also: % is scaled to controls: 0 for no effect and ±100 for the full control effect); settings: VDR-UAS-bla HEK293T, beta-lactamase FRET ratio, 16 h
Sequence of UniProt P11473 (P11473 whole entry, looked up): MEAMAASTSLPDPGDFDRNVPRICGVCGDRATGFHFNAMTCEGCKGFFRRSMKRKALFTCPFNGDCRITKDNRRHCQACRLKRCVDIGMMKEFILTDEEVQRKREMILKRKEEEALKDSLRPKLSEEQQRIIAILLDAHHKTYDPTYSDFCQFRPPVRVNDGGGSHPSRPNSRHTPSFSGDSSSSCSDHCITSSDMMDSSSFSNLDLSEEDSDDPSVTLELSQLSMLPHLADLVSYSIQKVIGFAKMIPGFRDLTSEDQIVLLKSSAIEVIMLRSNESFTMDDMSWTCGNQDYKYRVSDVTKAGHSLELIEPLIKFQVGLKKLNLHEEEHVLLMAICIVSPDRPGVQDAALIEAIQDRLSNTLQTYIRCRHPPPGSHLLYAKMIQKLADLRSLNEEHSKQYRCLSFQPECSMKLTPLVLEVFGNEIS
Method in brief: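 Beta-lactamase reporter read-out: FRET substrate fluorescence after 2 h at room temperature, following 16 h exposure of VDR-bla cells to test compound plus 3 nM (final) 1alpha,25-dihydroxyvitamin D3 agonist at 37C.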

[6] = target: Retinoic acid receptor RXR-alpha (Homo sapiens) (UniProt P19793); test: qHTS assay to identify small molecule agonists of the RXR signaling pathway (AID 1159527; calls by dose curve; also: nearly all actives have a fitted effect of over 35% in size; also: potency is read from the fitted curve at half-maximal effect); settings: HEK293T RXRa-UAS-bla, beta-lactamase ratio, 16 h; activation: at 76.8 µM (top of the series) unless noted
Sequence of UniProt P19793 (P19793 whole entry, looked up): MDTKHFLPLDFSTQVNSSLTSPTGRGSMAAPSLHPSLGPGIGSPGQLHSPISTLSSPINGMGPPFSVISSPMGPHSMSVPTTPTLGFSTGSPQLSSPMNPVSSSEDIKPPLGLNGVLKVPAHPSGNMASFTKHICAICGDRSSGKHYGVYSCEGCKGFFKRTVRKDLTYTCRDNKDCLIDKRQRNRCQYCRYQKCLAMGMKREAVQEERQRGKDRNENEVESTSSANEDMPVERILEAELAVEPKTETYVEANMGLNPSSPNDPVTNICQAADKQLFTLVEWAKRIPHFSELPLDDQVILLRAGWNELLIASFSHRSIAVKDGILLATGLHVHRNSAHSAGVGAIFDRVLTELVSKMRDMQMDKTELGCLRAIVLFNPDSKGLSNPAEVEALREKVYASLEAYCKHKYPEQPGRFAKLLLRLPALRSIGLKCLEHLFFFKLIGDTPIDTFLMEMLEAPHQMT
Method in brief: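 Agonist mode; 9-cis retinoic acid positive control. HEK 293T UAS-bla reporter cells, 2% charcoal-stripped FBS, 16 hr compound exposure at 37 C/5% CO2. LiveBLAzer B/G FRET substrate 2 hr RT; ex 405, em 460/530 nm.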

[7] = qHTS assay to identify small molecule antagonists of the progesterone receptor (PR) signaling pathway - cell viability counter screen (AID 1346798); also: % is scaled to controls: 0 for no effect and ±100 for the full control effect; nearly all actives have a fitted effect of over 50% in size
Method in brief: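 Luminescence readout (CellTiter-Glo, 30 min, RT) of viability in PR-UAS-bla HEK293T cells exposed to compound and R5020 agonist for 16 hr at 37C, 5% CO2; run in the same wells as the beta-lactamase reporter read.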

[8] = target: Cytochrome P450 2C9 (Homo sapiens) (UniProt P11712); test: Cytochrome P450 Family 2 Subfamily C Member 9 (CYP2C9) small molecule antagonists: luciferase reporter qHTS assay (AID 1671198); also: nearly all actives have a fitted effect of over 50% in size; also: potency is read from the fitted curve at half-maximal effect
Sequence of UniProt P11712 (P11712 whole entry, looked up): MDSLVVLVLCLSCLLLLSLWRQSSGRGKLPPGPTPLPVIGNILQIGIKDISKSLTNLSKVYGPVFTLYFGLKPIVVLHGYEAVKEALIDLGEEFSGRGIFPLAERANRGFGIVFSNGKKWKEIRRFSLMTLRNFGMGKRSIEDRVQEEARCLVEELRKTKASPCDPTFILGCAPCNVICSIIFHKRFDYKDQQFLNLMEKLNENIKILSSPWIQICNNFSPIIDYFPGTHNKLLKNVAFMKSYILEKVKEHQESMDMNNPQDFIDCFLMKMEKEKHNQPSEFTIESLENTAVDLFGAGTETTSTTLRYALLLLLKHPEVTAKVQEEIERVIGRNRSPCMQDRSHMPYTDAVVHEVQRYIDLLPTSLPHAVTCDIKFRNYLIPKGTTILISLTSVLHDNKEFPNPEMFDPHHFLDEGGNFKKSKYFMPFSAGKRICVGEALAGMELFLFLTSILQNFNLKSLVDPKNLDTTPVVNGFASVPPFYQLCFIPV
Method in brief: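 CYP2C9 activity was measured with a P450-Glo proluciferin substrate. Enzyme–substrate mix was held with compound for 10 min at room temperature, then NADPH regeneration solution was added for 1 h at 37C. Luciferin product was read as luminescence.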

[9] = qHTS assay for identifying genotoxic compounds that show differential cytotoxicity against isogenic chicken DT40 cell lines with known DNA damage response pathways - wild type cell line (AID 743012); settings: DT40 wild type chicken cells viability, CellTiter-Glo, 40 h; activity change, negative = cytotoxicity: at 68.4 µM (top of the series) unless noted; also: potency is read from the fitted curve at half-maximal effect; nearly all actives have a fitted effect of over 60% in size
Method in brief: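 Luminescent ATP viability signal (CellTiter-Glo, 30 min RT) recorded after wild type DT40 cells were incubated with compounds for 40 h at 37 C/5% CO2.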

[10] = qHTS assay to identify small molecule antagonists of the thyroid receptor (TR) signaling pathway - cell viability counter screen (AID 743064); settings: GH3.TRE-Luc viability, CellTiter-Fluor, 24 h; activity change, negative = cytotoxic: at 70.3 µM (top of the series) unless noted; also: potency is read from the fitted curve at half-maximal effect; nearly all actives have a fitted effect of over 50% in size
Method in brief: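 GH3.TRE-Luc cells, 4 h pre-plating; cpd + T3 1 nM final; 37 °C 23.5 h; CellTiter-Fluor 30 min; fluorescence read.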

[11] = qHTS assay to identify small molecule antagonists of the sonic hedgehog signaling (Shh) pathway (AID 1259369; calls by dose curve; also: potency is read from the fitted curve at half-maximal effect; nearly all actives have a fitted effect of over 45% in size)
Method in brief: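 Stable Gli1-Luc reporter NIH/3T3 clone; quantitative HTS in stimulated mode with conditioned medium. Luminescence measured after 24hr compound treatment at 37 C.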

[12] = target: Cytochrome P450 1A2 (Homo sapiens) (UniProt P05177); test: Cytochrome P450 Family 1 Subfamily A Member 2 (CYP1A2) small molecule antagonists: luciferase reporter qHTS assay (AID 1671199); also: nearly all actives have a fitted effect of over 50% in size; also: potency is read from the fitted curve at half-maximal effect
Sequence of UniProt P05177 (P05177 whole entry, looked up): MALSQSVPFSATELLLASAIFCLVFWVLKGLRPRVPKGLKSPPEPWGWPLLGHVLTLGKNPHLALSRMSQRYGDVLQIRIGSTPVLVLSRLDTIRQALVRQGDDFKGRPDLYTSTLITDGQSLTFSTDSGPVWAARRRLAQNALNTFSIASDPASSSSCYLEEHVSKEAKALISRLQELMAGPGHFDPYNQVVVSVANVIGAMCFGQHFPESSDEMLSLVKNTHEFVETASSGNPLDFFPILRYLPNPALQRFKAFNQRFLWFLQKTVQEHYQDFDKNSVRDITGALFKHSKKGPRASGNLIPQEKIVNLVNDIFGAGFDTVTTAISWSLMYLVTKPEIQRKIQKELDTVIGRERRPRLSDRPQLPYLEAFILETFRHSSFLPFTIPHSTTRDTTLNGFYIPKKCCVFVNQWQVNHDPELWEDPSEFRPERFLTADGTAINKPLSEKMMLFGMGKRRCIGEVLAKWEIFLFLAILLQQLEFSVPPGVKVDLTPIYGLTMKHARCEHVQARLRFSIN
Method in brief: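 Steps: enzyme-substrate mix dispensed; test compounds and furafylline control pinned in; 10 min room temperature; NADPH regeneration solution added, 1 h; reaction stopped with luciferin detection reagent; luminescence read after 20 min.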

[13] = qHTS assay for small molecule disruptors of the mitochondrial membrane potential (AID 720635); settings: HepG2 mitochondrial membrane potential, Mito-MPS dye ratio; ratio activity, negative = MMP loss: at 83.2 µM (top of the series) unless noted; also: % is scaled to controls: 0 for no effect and ±100 for the full control effect
Method in brief: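 HepG2 cells (2,000/well) attached overnight at 37C, then took compound for 1 hr at 37C, 5% CO2. Mito-MPS dye was added for 30 min; fluorescence was read at 490/535 nm (monomers) and 540/590 nm (aggregates).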

[14] = target: Glucocorticoid receptor (Homo sapiens) (UniProt P04150); test: qHTS assay to identify small molecule antagonists of the glucocorticoid receptor (GR) signaling pathway (AID 720692; active = well fitted inhibition curve with a large enough effect in the signal ratio in the repeat runs, not every such curve was filed as active; inconclusive = weak or mixed curves, or effect the other way; inactive = no such curve, though single readings can be large or run the other way; the % refers to the signal ratio; also: % is scaled to controls: 0 for no effect and ±100 for the full control effect); settings: GR-bla HeLa, beta-lactamase FRET ratio, dexamethasone-stimulated, 18 h
Sequence of UniProt P04150 (P04150 whole entry, looked up): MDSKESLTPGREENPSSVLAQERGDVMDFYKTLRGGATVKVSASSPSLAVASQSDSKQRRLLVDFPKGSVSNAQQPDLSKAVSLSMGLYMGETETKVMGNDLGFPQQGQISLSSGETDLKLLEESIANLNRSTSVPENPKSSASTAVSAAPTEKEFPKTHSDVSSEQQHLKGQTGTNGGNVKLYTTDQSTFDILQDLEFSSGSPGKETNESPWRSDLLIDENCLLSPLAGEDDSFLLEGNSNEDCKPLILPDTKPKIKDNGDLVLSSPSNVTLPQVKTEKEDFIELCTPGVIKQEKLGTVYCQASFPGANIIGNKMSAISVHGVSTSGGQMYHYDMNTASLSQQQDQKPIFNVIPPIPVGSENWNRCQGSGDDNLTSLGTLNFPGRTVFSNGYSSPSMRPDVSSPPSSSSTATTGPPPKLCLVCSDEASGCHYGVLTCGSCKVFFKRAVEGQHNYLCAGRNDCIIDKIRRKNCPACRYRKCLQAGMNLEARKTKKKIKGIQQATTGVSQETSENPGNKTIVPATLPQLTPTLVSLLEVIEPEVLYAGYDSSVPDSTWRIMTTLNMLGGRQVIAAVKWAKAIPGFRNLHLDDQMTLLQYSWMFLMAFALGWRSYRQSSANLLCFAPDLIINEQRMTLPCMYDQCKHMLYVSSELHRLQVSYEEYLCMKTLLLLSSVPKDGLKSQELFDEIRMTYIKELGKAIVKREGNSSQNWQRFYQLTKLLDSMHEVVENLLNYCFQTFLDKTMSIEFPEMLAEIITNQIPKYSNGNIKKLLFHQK
Method in brief: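 Quantitative HTS in antagonist format: HeLa cells expressing endogenous GR and a stably integrated GRE-bla reporter, stimulated with 5 nM dexamethasone (final) alongside test compounds for 18 h.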

[15] = qHTS assay for small molecule agonists of the antioxidant response element (ARE) signaling pathway (AID 743202; active = well fitted activation curve with a large enough effect in the signal ratio in the repeat runs, not every such curve was filed as active; inconclusive = weak or mixed curves, or effect the other way; inactive = no such curve, though single readings can be large or run the other way; the % refers to the signal ratio; also: % is scaled to controls: 0 for no effect and ±100 for the full control effect); settings: HepG2 ARE-bla reporter, beta-lactamase FRET, 16 h; activation: at 73.3 µM (top of the series) unless noted
Method in brief: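 Steps: seed ARE-bla HepG2 cells (2,000/well); incubate 5 h at 37 C; add compounds by pin tool; incubate 16 h at 37 C; add FRET substrate; read fluorescence after 2 h at RT.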

[16] = qHTS assay to identify small molecule agonists of the progesterone receptor (PR) signaling pathway - cell viability counter screen (AID 1346799; calls by dose curve; also: potency is read from the fitted curve at half-maximal effect; nearly all actives have a fitted effect of over 45% in size)
Method in brief: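 HEK293T PR-UAS-bla, 3,000 cells/well, 2% charcoal-stripped FBS; 6 h settle, compound 16 h at 37C/5% CO2; LiveBLAzer 2 h RT, then CellTiter-Glo 30 min RT, luminescence read.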

[17] = target: Cytochrome P450 2C19 (Homo sapiens) (UniProt P33261); test: Cytochrome P450 Family 2 Subfamily C Member 19 (CYP2C19) small molecule antagonists: luciferase reporter qHTS assay (AID 1671197); also: potency is read from the fitted curve at half-maximal effect; nearly all actives have a fitted effect of over 65% in size
Sequence of UniProt P33261 (P33261 whole entry, looked up): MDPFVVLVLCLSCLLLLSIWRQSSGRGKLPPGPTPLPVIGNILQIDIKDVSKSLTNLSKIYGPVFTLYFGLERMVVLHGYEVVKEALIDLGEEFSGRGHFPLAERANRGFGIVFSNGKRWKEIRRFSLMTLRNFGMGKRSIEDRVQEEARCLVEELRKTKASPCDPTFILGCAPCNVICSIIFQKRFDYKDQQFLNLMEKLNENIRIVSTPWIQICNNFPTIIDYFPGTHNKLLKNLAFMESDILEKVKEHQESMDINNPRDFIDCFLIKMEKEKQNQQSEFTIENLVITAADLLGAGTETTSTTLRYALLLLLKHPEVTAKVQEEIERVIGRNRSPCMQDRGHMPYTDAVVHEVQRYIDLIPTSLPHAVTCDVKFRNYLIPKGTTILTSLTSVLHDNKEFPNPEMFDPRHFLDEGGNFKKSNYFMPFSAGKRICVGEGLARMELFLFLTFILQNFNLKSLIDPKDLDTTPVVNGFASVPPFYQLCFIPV
Method in brief: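 Quantitative high-throughput screen of the Tox21 library using CYP2C19 with proluciferin substrate. Reaction: NADPH regeneration, 37C, 1 h, after 10 min compound preincubation at room temperature. Readout: luminescence.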

[18] = target: Cytochrome P450 2D6 (Homo sapiens) (UniProt P10635); test: Cytochrome P450 Family 2 Subfamily D Member 6 (CYP2D6) small molecule antagonists: luciferase reporter qHTS assay (AID 1671196)
Sequence of UniProt P10635 (P10635 whole entry, looked up): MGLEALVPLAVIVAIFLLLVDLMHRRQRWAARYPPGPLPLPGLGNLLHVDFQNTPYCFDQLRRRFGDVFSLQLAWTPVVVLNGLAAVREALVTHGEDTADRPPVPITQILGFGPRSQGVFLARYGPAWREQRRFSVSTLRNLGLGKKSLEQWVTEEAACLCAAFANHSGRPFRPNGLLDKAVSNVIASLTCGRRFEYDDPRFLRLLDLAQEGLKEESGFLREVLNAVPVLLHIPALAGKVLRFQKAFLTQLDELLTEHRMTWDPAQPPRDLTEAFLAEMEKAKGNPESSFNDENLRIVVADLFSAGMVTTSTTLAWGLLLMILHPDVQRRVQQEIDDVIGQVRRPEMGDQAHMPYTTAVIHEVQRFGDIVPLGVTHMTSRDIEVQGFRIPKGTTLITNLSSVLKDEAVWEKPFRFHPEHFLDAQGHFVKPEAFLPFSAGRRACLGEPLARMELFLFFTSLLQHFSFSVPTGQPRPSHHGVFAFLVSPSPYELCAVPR
Method in brief: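 Test chemicals meet CYP2D6 plus proluciferin substrate (10 min, RT); NADPH regenerating solution then drives turnover for 1 h. Detection reagent halts the reaction; luminescence measured after 20 min.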

[19] = qHTS assay for identifying genotoxic compounds that show differential cytotoxicity against isogenic chicken DT40 cell lines with known DNA damage response pathways - Rev3 mutant cell line (AID 743014); settings: chicken DT40 Rev3-/- viability, CellTiter-Glo, 40 h; activity, negative = cytotoxicity: at 68.4 µM (top of the series) unless noted; also: potency is read from the fitted curve at half-maximal effect; nearly all actives have a fitted effect of over 55% in size
[20] = ratio activity, negative = inhibition: at 62.6 µM (top of the series) unless noted
[21] = activity change, negative = inhibition: at 61 µM (top of the series) unless noted
[22] = activity change, negative = inhibition: at 58.5 µM (top of the series) unless noted
Tags tell the direction and shape of the fitted curve or compound fluorescence and quenching.

CC(=O)Nc1ccn(C2COC(COC(=O)c3ccccc3)O2)c(=O)n1 (stereo unspecified)
active: Potency [1] 3.76 µM
inactive: Potency [3] | Potency [7]
inconclusive: ratio activity, negative = inhibition [2, 20] -14.4% | Potency [4] 0.0024 µM [rising, full curve, poor fit] | activity change, negative = inhibition [5, 21] -16.4% | activation [6] -25.8% [at 35.3 µM] | Potency [8] 27.5 µM [inhibitor, partial curve, poor fit]

CC(C)Nc1nc(N)nc(Cl)n1
inactive: Potency [2, 20] | Potency [6]
inconclusive: Potency [9] 24.3 µM [rising, partial curve, poor fit] | Potency [10] 10.8 µM [rising, single point] | Potency [11] 6.84 µM [inhibitor, full curve, poor fit] | Potency [8] 89.2 µM [inhibitor, partial curve, poor fit] | Potency [12] 35.5 µM [inhibitor, partial curve]

NS(=O)(=O)Cc1noc2ccccc12
inactive: Potency [15] | Potency [6] | Potency [12]
inconclusive: Potency [1] 33.5 µM [activator, single point] | ratio activity, negative = MMP loss [13] 25.1% | activity change, negative = inhibition [14, 22] -10.6%

C=CC(=O)NC(C)(C)C
inactive: Potency [8]
inconclusive: ratio activity, negative = MMP loss [13] 7.31% | Potency [9] 9.69 µM [rising, partial curve, poor fit] | Potency [4] 0.11 µM [rising, partial curve, poor fit] | activation [6] -0.69% | Potency [16] 77 µM [cytotoxic, single point] | Potency [17] 0.564 µM [inhibitor, full curve, poor fit] | Potency [12] 39.9 µM [inhibitor, partial curve]

CC(C)(C)c1cc(C=O)cc(C(C)(C)C)c1O
inactive: Potency [15] | Potency [18]
inconclusive: Potency [6] 21.3 µM [activator, partial curve] | Potency [17] 11 µM [inhibitor, partial curve, poor fit] | Potency [8] 4.9 µM [inhibitor, full curve]

CCCC(C)CC (stereo unspecified)
inactive: Potency [1] | Potency [13] | Potency [4] | Potency [6]
inconclusive: Potency [17] 87.9 µM [inhibitor, single point]

COCCOC(=O)c1ccccc1C(=O)OCCOC
inactive: activity change, negative = inhibition ([14]; at 58.5 µM (top of the series)) 2.29% | ratio activity, negative = inhibition ([2]; at 81.1 µM (top of the series)) 7.26% | Potency [15] | activity change, negative = inhibition ([5]; at 78.8 µM (top of the series)) 4.7% | Potency [6]
inconclusive: activity change, negative = inhibition [14, 22] 2.17% [at 78.9 µM] | Potency [9] 2.75 µM [rising, partial curve] | Potency [19] 2.17 µM [cytotoxic, full curve, poor fit] | ratio activity, negative = inhibition [2, 20] 20.8% | Potency [4] 0.0014 µM [cytotoxic, full curve, poor fit] | activity change, negative = inhibition [5, 21] 7.01% | Potency [8] 63.7 µM [inhibitor, partial curve, poor fit] and 39.9 µM [inhibitor, partial curve]
